{"sequences": {"note": "The chains behind the UniProt entries cited, without tags or fusion partners. Residues count along the entry.", "UniProt Q9NZQ7, residues 19-290": "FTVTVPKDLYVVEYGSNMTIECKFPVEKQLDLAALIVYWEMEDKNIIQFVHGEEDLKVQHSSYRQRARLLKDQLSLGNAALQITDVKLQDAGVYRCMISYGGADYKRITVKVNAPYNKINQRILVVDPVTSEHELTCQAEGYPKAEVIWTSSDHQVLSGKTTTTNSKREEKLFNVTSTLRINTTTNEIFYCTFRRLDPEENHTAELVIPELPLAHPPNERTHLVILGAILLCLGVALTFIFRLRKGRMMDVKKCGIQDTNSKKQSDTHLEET"}, "source": "paper PMC8971425", "key": {"[1]": {"target": "T1, GST-USP8 (UniProt P40818)", "T1 sequence": "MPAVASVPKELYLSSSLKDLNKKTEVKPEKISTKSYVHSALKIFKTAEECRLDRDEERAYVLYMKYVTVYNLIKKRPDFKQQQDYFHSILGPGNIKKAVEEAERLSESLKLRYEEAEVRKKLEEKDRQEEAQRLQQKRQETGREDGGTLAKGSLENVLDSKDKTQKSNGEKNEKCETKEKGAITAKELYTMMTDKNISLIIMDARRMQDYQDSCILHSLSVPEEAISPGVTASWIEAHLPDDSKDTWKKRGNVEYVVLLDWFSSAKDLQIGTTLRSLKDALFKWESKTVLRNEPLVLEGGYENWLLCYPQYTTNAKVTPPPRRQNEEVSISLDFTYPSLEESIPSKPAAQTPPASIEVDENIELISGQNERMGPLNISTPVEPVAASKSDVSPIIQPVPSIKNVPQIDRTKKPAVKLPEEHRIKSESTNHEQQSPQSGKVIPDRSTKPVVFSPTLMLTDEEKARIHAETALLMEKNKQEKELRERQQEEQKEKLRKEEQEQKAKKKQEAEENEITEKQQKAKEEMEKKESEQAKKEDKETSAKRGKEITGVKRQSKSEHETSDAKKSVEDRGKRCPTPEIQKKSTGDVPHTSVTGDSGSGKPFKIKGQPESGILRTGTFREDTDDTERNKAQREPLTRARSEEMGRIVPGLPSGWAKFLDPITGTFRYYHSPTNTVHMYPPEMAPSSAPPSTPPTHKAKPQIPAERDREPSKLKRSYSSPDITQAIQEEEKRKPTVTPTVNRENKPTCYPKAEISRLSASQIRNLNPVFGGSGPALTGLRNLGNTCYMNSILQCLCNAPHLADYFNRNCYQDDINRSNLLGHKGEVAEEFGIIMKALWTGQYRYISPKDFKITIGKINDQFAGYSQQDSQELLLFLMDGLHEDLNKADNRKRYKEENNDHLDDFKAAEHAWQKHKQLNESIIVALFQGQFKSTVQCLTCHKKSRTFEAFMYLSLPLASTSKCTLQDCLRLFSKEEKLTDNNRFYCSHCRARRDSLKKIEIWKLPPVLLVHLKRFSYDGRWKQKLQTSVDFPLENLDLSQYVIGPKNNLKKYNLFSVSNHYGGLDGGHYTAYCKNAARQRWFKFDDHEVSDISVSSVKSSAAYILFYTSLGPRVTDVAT", "experiment": "pull-down; bacterially purified recombinant GST or GST-USP8 incubated with lysates of 293T cells with ectopic expression of HA-PD-L1; immunoblot; only the target purified"}, "[2]": {"target": "T2, Flag-USP8 middle region (aa 314–714) (UniProt P40818)", "T2 sequence": "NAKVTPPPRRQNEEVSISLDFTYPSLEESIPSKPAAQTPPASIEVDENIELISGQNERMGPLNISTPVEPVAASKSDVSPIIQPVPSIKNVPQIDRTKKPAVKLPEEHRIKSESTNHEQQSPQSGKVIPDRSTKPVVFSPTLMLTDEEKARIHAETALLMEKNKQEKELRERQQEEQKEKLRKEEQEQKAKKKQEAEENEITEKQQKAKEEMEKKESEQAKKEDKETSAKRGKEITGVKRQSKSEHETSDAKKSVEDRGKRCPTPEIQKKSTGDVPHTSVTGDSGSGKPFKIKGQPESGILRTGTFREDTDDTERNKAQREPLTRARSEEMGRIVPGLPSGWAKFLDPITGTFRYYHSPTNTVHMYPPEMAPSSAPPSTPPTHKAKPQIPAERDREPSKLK", "experiment": "co-IP; 293T cells co-transfected with the indicated constructs, 10 µM MG132 for 12 h before harvest; lysis in EBC buffer (50 mM Tris pH 7.5, 120 mM NaCl, 0.5% NP-40); bead-conjugated anti-Flag (Fig. 2a, 2f, 3j) or anti-HA (Fig. 5i) overnight at 4 °C; four washes with NETN buffer; immunoblot"}, "[3]": {"target": "T3, Flag-USP8 N-terminal domain (aa 1–313) (UniProt P40818)", "T3 sequence": "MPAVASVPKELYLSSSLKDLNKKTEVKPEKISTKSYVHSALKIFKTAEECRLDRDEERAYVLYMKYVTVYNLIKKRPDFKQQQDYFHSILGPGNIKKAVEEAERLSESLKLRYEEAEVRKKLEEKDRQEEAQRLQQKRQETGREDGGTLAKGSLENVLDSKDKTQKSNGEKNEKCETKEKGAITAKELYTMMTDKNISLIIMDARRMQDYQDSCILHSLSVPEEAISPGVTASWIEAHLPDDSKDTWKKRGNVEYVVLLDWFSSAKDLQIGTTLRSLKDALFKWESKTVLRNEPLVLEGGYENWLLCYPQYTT", "experiment": "co-IP; 293T cells co-transfected with the indicated constructs, 10 µM MG132 for 12 h before harvest; lysis in EBC buffer (50 mM Tris pH 7.5, 120 mM NaCl, 0.5% NP-40); bead-conjugated anti-Flag (Fig. 2a, 2f, 3j) or anti-HA (Fig. 5i) overnight at 4 °C; four washes with NETN buffer; immunoblot"}, "[4]": {"target": "T4, Flag-USP8 (WT) (UniProt P40818)", "T4 sequence": "T1 sequence", "experiment": "co-IP; 293T cells co-transfected with the indicated constructs, 10 µM MG132 for 12 h before harvest; lysis in EBC buffer (50 mM Tris pH 7.5, 120 mM NaCl, 0.5% NP-40); bead-conjugated anti-Flag (Fig. 2a, 2f, 3j) or anti-HA (Fig. 5i) overnight at 4 °C; four washes with NETN buffer; immunoblot"}, "[5]": {"target": "T5, Flag-USP8 C-terminal domain (aa 715–1118) (UniProt P40818)", "T5 sequence": "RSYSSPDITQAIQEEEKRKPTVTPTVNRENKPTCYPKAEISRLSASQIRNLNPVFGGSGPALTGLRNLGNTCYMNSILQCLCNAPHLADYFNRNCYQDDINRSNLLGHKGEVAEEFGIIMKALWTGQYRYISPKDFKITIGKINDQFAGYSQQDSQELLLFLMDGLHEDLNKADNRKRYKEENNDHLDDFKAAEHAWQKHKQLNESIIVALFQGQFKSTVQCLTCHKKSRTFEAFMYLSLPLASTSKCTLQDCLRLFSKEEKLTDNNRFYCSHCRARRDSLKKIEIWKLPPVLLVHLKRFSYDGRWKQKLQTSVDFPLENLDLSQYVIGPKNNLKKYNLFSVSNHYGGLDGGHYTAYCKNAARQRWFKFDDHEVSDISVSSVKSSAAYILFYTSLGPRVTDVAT", "experiment": "co-IP; 293T cells co-transfected with the indicated constructs, 10 µM MG132 for 12 h before harvest; lysis in EBC buffer (50 mM Tris pH 7.5, 120 mM NaCl, 0.5% NP-40); bead-conjugated anti-Flag (Fig. 2a, 2f, 3j) or anti-HA (Fig. 5i) overnight at 4 °C; four washes with NETN buffer; immunoblot"}, "[6]": {"target": "T6, USP8 expressed in cells, construct not told (Fig. 5i; Supplementary Fig. 2c, 5l–n) (UniProt P40818)", "T6 sequence": "T1 sequence", "experiment": "co-IP; 'in cells'; supplementary figures (2c, 3g, 3k, l, 5k) whose legends were not shown; immunoprecipitation as in the methods"}, "[7]": {"target": "T6, USP8 expressed in cells, construct not told (Fig. 5i; Supplementary Fig. 2c, 5l–n)", "experiment": "co-IP; 'in cells'; gradient ectopic expression of the third protein (USP8, PD-L1 or TRAF6) while the interaction of the other two is read; Supplementary Fig. 5l–n, legends not shown"}}, "note": "Results are given in words; binding and its absence hold for the method and conditions named. Binding seen in cells or lysates may run through a third protein. Some results given as binding are weak or reduced against the parent protein; the word gives no strength. For some of these results: Tags and fused reporters may be left off the sequences shown."}
{"substance": "HA-PD-L1 (from UniProt Q9NZQ7 19-290)", "values": [{"measurement": "binding", "setting": "[1]", "result": "binds"}]}
{"substance": "PD-L1 co-transfected for co-immunoprecipitation (pcDNA3-PD-L1 or pcDNA3-HA-PD-L1, not told for each panel) (from UniProt Q9NZQ7 19-290)", "values": [{"measurement": "binding", "setting": "[2]", "result": "no binding"}, {"measurement": "binding", "setting": "[3]", "result": "binds"}, {"measurement": "binding", "setting": "[4]", "result": "binds"}, {"measurement": "binding", "setting": "[5]", "result": "binds"}, {"measurement": "binding", "setting": "[6]", "result": "binds"}, {"measurement": "binding", "setting": "[7]", "result": "binds"}]}
